# Where a name gives a salt, the structure may show the parent alone. Read-outs that look alike come from different tables or passages of the source. Some of these results come from one statement about several compounds together. At least one compound was matched to its structure with a doubt left.
# Molecular target: T1, HCV helicase (helicase domain of NS3 protein) (UniProt P27958)
# T1 construct: The helicase domain of NS3 protein was expressed in a baculovirus system in HF insect cell line; fused on or other part: Histidine tag, inferred from the Talon cobalt column purification ('histidine repetitions')
# T1 sequence (P27958 1027-1657): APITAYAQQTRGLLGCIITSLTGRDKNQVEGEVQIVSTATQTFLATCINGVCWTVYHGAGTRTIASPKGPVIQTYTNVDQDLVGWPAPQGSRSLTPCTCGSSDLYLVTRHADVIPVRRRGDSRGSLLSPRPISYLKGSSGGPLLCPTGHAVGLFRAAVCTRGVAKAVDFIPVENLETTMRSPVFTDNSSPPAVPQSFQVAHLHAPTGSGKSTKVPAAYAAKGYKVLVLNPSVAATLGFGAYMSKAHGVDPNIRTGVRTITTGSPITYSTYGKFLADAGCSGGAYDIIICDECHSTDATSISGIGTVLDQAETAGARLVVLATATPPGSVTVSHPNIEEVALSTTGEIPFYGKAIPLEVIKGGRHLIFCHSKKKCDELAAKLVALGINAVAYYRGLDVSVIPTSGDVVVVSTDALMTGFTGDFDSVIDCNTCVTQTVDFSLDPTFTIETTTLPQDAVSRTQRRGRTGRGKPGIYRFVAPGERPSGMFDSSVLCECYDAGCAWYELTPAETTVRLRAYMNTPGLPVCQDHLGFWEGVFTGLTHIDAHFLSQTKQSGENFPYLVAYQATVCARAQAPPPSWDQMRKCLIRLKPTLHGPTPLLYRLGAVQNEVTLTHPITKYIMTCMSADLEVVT
# Test: Fluorometric (FRET) antihelicase activity assay
# Format: biochemical, hepatitis C virus (HCV)
# Excerpt: A reaction takes place on a 96- or 384-well microtitration plate and a course of the reaction is observed in real time.
# The helicase domain of NS3 protein was expressed in a baculovirus system in HF insect cell line.
# In this assay, FAM fluorescence is quenched by fluorescence energy transfer (FRET) to the BHQ molecule, while unwinding of double-stranded DNA structure leads to decrease of FRET phenomenon and increase of FAM fluorescence signal. The assay allows for examining a large number of samples, i.e., different helicase inhibitors at various concentrations and with many repetitions, in standardized conditions. The reaction is conducted in a microtitration plate. The reaction process is observed in real time.
# The enzyme (10 nM) was pre-incubated with the tested derivatives dissolved in DMSO (0.005 to 20 μM concentration) without ATP for 15 min at room temperature. The reaction of DNA unwinding was started by addition of ATP and was carried out at 30° C. for 60 min in a Synergy HTi (Biotek) fluorometer. […] Fluorescence was measured every 2 mins.
# The enzyme activity was calculated as the initial reaction velocity from the linear part of reaction curve (fluorescence growth as a function of time) using a linear regression method. Inhibition was calculated as comparison of activity of the helicase incubated with inhibitor to activity of the helicase incubated without inhibitor, but with a proper concentration of DMSO, expressed in percent.
# [1] = concentration inhibiting 50% of helicase activity, 10 nM enzyme pre-incubated 15 min with derivative, unwinding at 30° C. for 60 min
# [2] = read-out: IC50 values for free bases, free bases assumed to correspond to the hydrochlorides of Tables 1 and 2 within IC50±10%, range given for the group
# [3] = free bases assumed to correspond to the hydrochlorides of Tables 1 and 2 within IC50±10%, range given for the group, read-out: IC50 values for free bases
Compound,IC50 [2] [µM],also measured
"CC(=O)C1(O)Cc2c(O)c3c(c(O)c2C(OC2CC(N=CN4CCCCCC4)C(O)C(C)O2)C1)C(=O)c1ccccc1C3=O (stereo not drawn) [3′-deamino-3′-(N,N-1″,6″-hexamethyleneformamidino)-idarubicin hydrochloride]",–,IC50 [1]: ≥ 10 µM
"CC(=O)C1(O)Cc2c(O)c3c(c(O)c2C(OC2CC(N=CN4CCOCC4)C(O)C(C)O2)C1)C(=O)c1ccccc1C3=O (stereo not drawn) [3′-deamino-3′-(N,N-3″-oxa-1″,5″-pentamethyleneformamidino)-idarubicin hydrochloride]",–,IC50 [1]: ≥ 10 µM
COc1cccc2c1C(=O)c1c(O)c3c(c(O)c1C2=O)CC(O)(C(C)=O)CC3OC1CC(N=CN2CCCC2)C(O)C(C)O1 (stereo not drawn) [Derivative 2],1.2 to 3.9,–
COc1cccc2c1C(=O)c1c(O)c3c(c(O)c1C2=O)CC(O)(C(C)=O)CC3OC1CC(N=CN2CCCCC2)C(O)C(C)O1 (stereo not drawn) [Derivative 6],–,IC50 [3]: 1.2 to 3.9 µM
COc1cccc2c1C(=O)c1c(O)c3c(c(O)c1C2=O)CC(O)(C(C)=O)CC3OC1CC(N=CN2CCN(C)CC2)C(O)C(C)O1 (stereo not drawn) [Derivative 9],1.2 to 3.9,–
CCN(C=NC1CC(OC2CC(O)(C(C)=O)Cc3c(O)c4c(c(O)c32)C(=O)c2c(OC)cccc2C4=O)OC(C)C1O)CC (stereo not drawn) [Derivative 13],1.2 to 3.9,–
COc1cccc2c1C(=O)c1c(O)c3c(c(O)c1C2=O)CC(O)(C(C)=O)CC3OC1CC(N=C(C)N2CCCC2)C(O)C(C)O1 (stereo not drawn) [Derivative 19],0.08 to 1.1,–
COc1cccc2c1C(=O)c1c(O)c3c(c(O)c1C2=O)CC(O)(C(C)=O)CC3OC1CC(N=C(C)N2CCCCC2)C(O)C(C)O1 (stereo not drawn) [Derivative 23],0.08 to 1.1,–
COc1cccc2c1C(=O)c1c(O)c3c(c(O)c1C2=O)CC(O)(C(C)=O)CC3OC1CC(N=C(C)N2CCN(C)CC2)C(O)C(C)O1 (stereo not drawn) [Derivative 26],7 to 13,–
COc1cccc2c1C(=O)c1c(O)c3c(c(O)c1C2=O)CC(O)(C(C)=O)CC3OC1CC(N=C(C)N2CCc3ccccc32)C(O)C(C)O1 (stereo not drawn) [Derivative 28],7 to 13,–
COc1cccc2c1C(=O)c1c(O)c3c(c(O)c1C2=O)CC(O)(C(=O)CO)CC3OC1CC(N=CN2CCCC2)C(O)C(C)O1 (stereo not drawn) [Derivative 36],0.4 to 1.2,–
COc1cccc2c1C(=O)c1c(O)c3c(c(O)c1C2=O)CC(O)(C(=O)CO)CC3OC1CC(N=CN2CCOCC2)C(O)C(C)O1 (stereo not drawn) [Derivative 38],1.2 to 3.9,–
COc1cccc2c1C(=O)c1c(O)c3c(c(O)c1C2=O)CC(O)(C(=O)CO)CC3OC1CC(N=CN2CCCCC2)C(O)C(C)O1 (stereo not drawn) [Derivative 40],1.2 to 3.9,–
COc1cccc2c1C(=O)c1c(O)c3c(c(O)c1C2=O)CC(O)(C(=O)CO)CC3OC1CC(N=CN2CCN(C)CC2)C(O)C(C)O1 (stereo not drawn) [Derivative 43],0.4 to 1.2,–
COc1cccc2c1C(=O)c1c(O)c3c(c(O)c1C2=O)CC(O)(C(=O)CO)CC3OC1CC(N=C(C)N2CCCC2)C(O)C(C)O1 (stereo not drawn) [Derivative 53],0.08 to 1.1,–
COc1cccc2c1C(=O)c1c(O)c3c(c(O)c1C2=O)CC(O)(C(=O)CO)CC3OC1CC(N=C(C)N2CCOCC2)C(O)C(C)O1 (stereo not drawn) [Derivative 55],0.08 to 1.1,–
COc1cccc2c1C(=O)c1c(O)c3c(c(O)c1C2=O)CC(O)(C(=O)CO)CC3OC1CC(N=C(C)N2CCCCC2)C(O)C(C)O1 (stereo not drawn) [Derivative 57],–,IC50 [3]: 7 to 13 µM
COc1cccc2c1C(=O)c1c(O)c3c(c(O)c1C2=O)CC(O)(C(=O)CO)CC3OC1CC(N=C(C)N2CCN(C)CC2)C(O)C(C)O1 (stereo not drawn) [Derivative 60],0.08 to 1.1,–
COc1cccc2c1C(=O)c1c(O)c3c(c(O)c1C2=O)CC(O)(C(C)=O)CC3OC1CC(N=CN2CCOCC2)C(O)C(C)O1 (stereo not drawn) [Derivative 72],1.2 to 3.9,–
COc1cccc2c1C(=O)c1c(O)c3c(c(O)c1C2=O)CC(O)(C(C)=O)CC3OC1CC(N=CN2CCCCC2)C(O)C(C)O1 (stereo not drawn) [Derivative 74],1.2 to 3.9,–

Compound,IC50 [2] [µM],also measured
COc1cccc2c1C(=O)c1c(O)c3c(c(O)c1C2=O)CC(O)(C(C)=O)CC3OC1CC(N=CN2CCN(C)CC2)C(O)C(C)O1 (stereo not drawn) [Derivative 77],0.4 to 1.2,–
COc1cccc2c1C(=O)c1c(O)c3c(c(O)c1C2=O)CC(O)(C(C)=O)CC3OC1CC(N=CN2CCc3ccccc32)C(O)C(C)O1 (stereo not drawn) [Derivative 79],–,IC50 [3]: 0.4 to 1.2 µM
CCN(C=NC1CC(OC2CC(O)(C(C)=O)Cc3c(O)c4c(c(O)c32)C(=O)c2c(OC)cccc2C4=O)OC(C)C1O)CC (stereo not drawn) [Derivative 81],0.4 to 1.2,–
CCCCN(C=NC1CC(OC2CC(O)(C(C)=O)Cc3c(O)c4c(c(O)c32)C(=O)c2c(OC)cccc2C4=O)OC(C)C1O)CCCC (stereo not drawn) [Derivative 85],1.2 to 3.9,–
COc1cccc2c1C(=O)c1c(O)c3c(c(O)c1C2=O)CC(O)(C(C)=O)CC3OC1CC(N=C(C)N2CCOCC2)C(O)C(C)O1 (stereo not drawn) [Derivative 90],–,IC50 [3]: 0.08 to 1.1 µM
COc1cccc2c1C(=O)c1c(O)c3c(c(O)c1C2=O)CC(O)(C(C)=O)CC3OC1CC(N=C(C)N2CCCCC2)C(O)C(C)O1 (stereo not drawn) [Derivative 92],–,IC50 [3]: 0.08 to 1.1 µM
CCN(CC)C(C)=NC1CC(OC2CC(O)(C(C)=O)Cc3c(O)c4c(c(O)c32)C(=O)c2c(OC)cccc2C4=O)OC(C)C1O (stereo not drawn) [Derivative 99],–,IC50 [3]: 0.08 to 1.1 µM
CCCN(CCC)C(C)=NC1CC(OC2CC(O)(C(C)=O)Cc3c(O)c4c(c(O)c32)C(=O)c2c(OC)cccc2C4=O)OC(C)C1O (stereo not drawn) [Derivative 101],7 to 13,–
COc1cccc2c1C(=O)c1c(O)c3c(c(O)c1C2=O)CC(O)(C(=O)CO)CC3OC1CC(N=CN2CCOCC2)C(O)C(C)O1 (stereo not drawn) [Derivative 108],0.4 to 1.2,–
COc1cccc2c1C(=O)c1c(O)c3c(c(O)c1C2=O)CC(O)(C(=O)CO)CC3OC1CC(N=CN2CCCCC2)C(O)C(C)O1 (stereo not drawn) [Derivative 110],0.4 to 1.2,–
COc1cccc2c1C(=O)c1c(O)c3c(c(O)c1C2=O)CC(O)(C(=O)CO)CC3OC1CC(N=CN2CCN(C)CC2)C(O)C(C)O1 (stereo not drawn) [Derivative 113],1.2 to 3.9,–
COc1cccc2c1C(=O)c1c(O)c3c(c(O)c1C2=O)CC(O)(C(=O)CO)CC3OC1CC(N=CN2CCc3ccccc32)C(O)C(C)O1 (stereo not drawn) [Derivative 115],0.4 to 1.2,–
CCN(C=NC1CC(OC2CC(O)(C(=O)CO)Cc3c(O)c4c(c(O)c32)C(=O)c2c(OC)cccc2C4=O)OC(C)C1O)CC (stereo not drawn) [Derivative 117],1.2 to 3.9,–
CCCN(C=NC1CC(OC2CC(O)(C(=O)CO)Cc3c(O)c4c(c(O)c32)C(=O)c2c(OC)cccc2C4=O)OC(C)C1O)CCC (stereo not drawn) [Derivative 119],1.2 to 3.9,–
COc1cccc2c1C(=O)c1c(O)c3c(c(O)c1C2=O)CC(O)(C(=O)CO)CC3OC1CC(N=C(C)N2CCCC2)C(O)C(C)O1 (stereo not drawn) [Derivative 124],–,IC50 [3]: 0.08 to 1.1 µM
COc1cccc2c1C(=O)c1c(O)c3c(c(O)c1C2=O)CC(O)(C(=O)CO)CC3OC1CC(N=C(C)N2CCCCC2)C(O)C(C)O1 (stereo not drawn) [Derivative 128],–,IC50 [3]: 0.08 to 1.1 µM
COc1cccc2c1C(=O)c1c(O)c3c(c(O)c1C2=O)CC(O)(C(=O)CO)CC3OC1CC(N=C(C)N2CCc3ccccc32)C(O)C(C)O1 (stereo not drawn) [Derivative 134],0.08 to 1.1,–
CCN(CC)C(C)=NC1CC(OC2CC(O)(C(=O)CO)Cc3c(O)c4c(c(O)c32)C(=O)c2c(OC)cccc2C4=O)OC(C)C1O (stereo not drawn) [Derivative 136],7 to 13,–
"CC(=O)[C@]1(O)Cc2c(O)c3c(c(O)c2[C@@H](O[C@H]2C[C@H](N)[C@H](O)[C@H](C)O2)C1)C(=O)c1ccccc1C3=O [Idarubicine, reference compound]",–,"IC50 (concentration inhibiting 50% of helicase activity, 10 nM enzyme pre-incubated 15 min with derivative, unwinding at 30° C. for 60 min, read-out: IC50): ≥ 10 µM"
